Measurements reported in PubChem BioAssay (NCATS).
Where “and” joins values, the source holds several entries; their conditions need not be identical. Equal entries are not always repeated. The shares of active, inactive and inconclusive entries below differ from those in the screen. A potency beside an inconclusive call is a rough fit, not a confirmed value. Calls of active or inactive are those of the source. The call rests on the fitted dose curve; in most records, active means well fitted curve in the direction sought with a large enough effect; inconclusive means small, poorly fitted or top-dose-only effect, or another doubt; inactive means no such curve, though single readings can be large; an effect the other way counts as inactive or inconclusive.

Tests used:
[1] = Viability qHTS for spleen associated tyrosine kinase inhibitor (SYKi) naive MV4-11 cells (AID 1963823); details: MV4-11 AML viability, CellTiter-Glo luminescence, 72 h; viability (% of control): at 45 µM (top of the series); further: nearly all actives have a fitted effect of over 40% in size
Summary of the method: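 Seeding of 500 SYKi-naive MV4-11 cells per well onto pre-dispensed compounds preceded a 72 hr incubation at 37 C. Luminescent CellTiter-Glo signal, read after 10 min at room temperature, reflected viable cells.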

[2] = Quantitative highthroughput screen to assess conditional lethalithy of NOMO1 cells grown in RPMI1640 with dialyzed fetal bovine serum (RPMI+ds) (AID 1963877); further: nearly all actives have a fitted effect of over 30% in size;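 on Viability: 100% = DMSO control wells and 0% = empty wells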
Summary of the method: (§1)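 Each medium arm—HPLM with 10% dialyzed FBS, or RPMI1640 with 5 mM glucose and 10% untreated or dialyzed FBS—was screened against an 11-point, 3-fold compound titration for 48 h at 37 °C, with CellTiter-Glo luminescence as endpoint.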

[3] = Quantitative highthroughput screen to assess conditional lethalithy of NOMO1 cells grown in Human Plasma-Like Medium with dialyzed fetal bovine serum (HPLM+ds) (AID 1963878); details: NOMO1 AML cells in HPLM+ds, CellTiter-Glo viability, 48 h; viability: at 45.8 µM (top of the series); further: nearly all actives have a fitted effect of over 35% in size
Summary of the method: as §1

[4] = Quantitative highthroughput screen to assess conditional lethalithy of P12 Ichikawa cells grown in Human Plasma-Like Medium with dialyzed fetal bovine serum (HPLM+ds) (AID 1963879); details: Potency: viability; further: nearly all actives have a fitted effect of over 35% in size
Summary of the method: as §1

[5] = Quantitative highthroughput screen to assess conditional lethalithy of P12 Ichikawa cells grown in RPMI1640 with dialyzed fetal bovine serum (RPMI+ds) (AID 1963880); details: Potency: P12-Ichikawa viability; further: nearly all actives have a fitted effect of over 35% in size;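 on Viability: 100% = DMSO wells and 0% = empty wells on each plate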
Summary of the method: as §1

[6] = Quantitative highthroughput screen to assess conditional lethalithy of SEM cells grown in Human Plasma-Like Medium with dialyzed fetal bovine serum (HPLM+ds) (AID 1963882); further: nearly all actives have a fitted effect of over 35% in size
Summary of the method: as §1

[7] = Quantitative highthroughput screen to assess conditional lethalithy of SEM cells grown in RPMI1640 with unreated serum (RPMI+s) (AID 1963883); details: SEM B-ALL cells, CellTiter-Glo viability, 48 h; viability: at 45.8 µM (top of the series); further: nearly all actives have a fitted effect of over 35% in size;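 on Viability: 100% = DMSO wells and 0% = empty wells without cells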
Summary of the method: as §1

[8] = Quantitative highthroughput screen to assess conditional lethalithy of SEM cells grown in RPMI1640 with dialyzed fetal bovine serum (RPMI+ds) (AID 1963884); details: SEM B-ALL cells, RPMI+dialyzed FBS, CellTiter-Glo viability, 48 h; viability: at 45.8 µM (top of the series); further: nearly all actives have a fitted effect of over 35% in size;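 on Viability: 100% = DMSO control wells and 0% = empty wells without cells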
Summary of the method: as §1

[9] = Cellular viability qHTS for adrenocortical cancer (ACC) cell line SW-13 (AID 1963989); details: SW-13 ACC cells viability, CellTiter-Glo, 48 h; activity (max response): stronger effect = lower value; further: nearly all actives have a fitted effect of over 65% in size;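 on activity (max response): cells grown in serum-free medium with ITS supplement; on the % scale 0 is the no-effect control and ±100 the full control effect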
Summary of the method: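 SW-13 cells in ITS-supplemented serum-free DMEM were plated overnight, then exposed for 48 h at 37C to compound titrations (up to 46 uM final). Viability was read by CellTiter-Glo luminescence; four-parameter logistic fits gave IC50 and efficacy.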

[10] = Quantitative highthroughput screen to assess conditional lethalithy of P12 Ichikawa cells grown in RPMI1640 with untreated serum (RPMI+s) (AID 1963881); details: Potency: viability; further: nearly all actives have a fitted effect of over 35% in size;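 on Viability: 100% = DMSO wells and 0% = empty wells without cells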
Summary of the method: as §1

[11] = Cellular viability qHTS for adrenocortical cancer (ACC) cell line NCI-H295R (AID 1963990); details: CellTiter-Glo ATP luminescence, 48 h; activity change, negative = viability loss: at 46.1 µM (top of the series); further: nearly all actives have a fitted effect of over 60% in size;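 on activity change, negative = viability loss: 0% = DMSO only wells and -100% = full killing with cytotoxic reference compound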
Summary of the method: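 Luminescent ATP read-out (CellTiter-Glo, 20 min RT) after 48 h drug exposure of NCI-H295R cells; a titration up to 46 uM final. Data normalized to doxorubicin (100% inhibition) and DMSO (0%); 4-parameter fit gives IC50, max response.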
Potency means the concentration at half of the fitted maximal effect; tags describe the fitted curve by direction and shape.

Structure (SMILES) | Potency [1] | Potency [2] | Potency [3] | Potency [4] | Potency [5] | Potency [6] | Potency [7] | Potency [8] | Potency [9] | Potency [10] | activity (max response) [9] | Potency [11]
Nc1ccn([C@@H]2O[C@H](CO)[C@@H](O)[C@H]2O)c(=O)n1 | inactive | inconclusive: 0.0209 µM [cytotoxic, full curve] | active: 0.0166 µM | inconclusive: 0.0042 µM [cytotoxic, full curve, poor fit] | inconclusive: 0.0059 µM [cytotoxic, full curve, poor fit] | inconclusive: 0.0166 µM [cytotoxic, full curve, poor fit] | inconclusive: 0.0105 µM [cytotoxic, full curve] | inactive | – | – | – | –
CN(C)c1ccc(C(=O)NCCCCCCC(=O)NO)cc1 | active: 0.833 µM | active: 2.35 µM | active: 2.64 µM | – | – | active: 1.32 µM | – | active: 1.18 µM | active: 4.47 µM | – | – | –
NCCCCNCCCN | active: 5.9 µM | inconclusive: 33.2 µM [cytotoxic, single point] | inconclusive: 14.8 µM [cytotoxic, partial curve] | inconclusive: 26.4 µM [cytotoxic, single point] | – | active: 11.8 µM | active: 13.2 µM | – | – | active: 18.7 µM | inactive: 4.66% | –
COc1cccc2c1C(=O)c1c(O)c3c(c(O)c1C2=O)C[C@@](O)(C(=O)CO)C[C@@H]3O[C@H]1C[C@H](N)[C@@H](O)[C@H](C)O1 | active: 0.0661 µM | active: 2.96 µM | active: 3.32 µM | active: 2.96 µM | active: 2.96 µM | active: 2.64 µM | – | – | active: 1.12 µM | – | – | –
COc1ccc2[nH]cc(CCNC(C)=O)c2c1 | inactive | inactive | – | – | – | – | inactive | inactive | – | inactive | – | –
COc1ccc(C2=N[C@H](c3ccc(Cl)cc3)[C@H](c3ccc(Cl)cc3)N2C(=O)N2CCNC(=O)C2)c(OC(C)C)c1 | inconclusive: 10.5 µM [cytotoxic, full curve, poor fit] | inconclusive: 18.7 µM [cytotoxic, partial curve] | – | active: 10.5 µM | inconclusive: 9.35 µM [cytotoxic, full curve] | – | – | active: 0.187 µM | – | inconclusive: 7.43 µM [cytotoxic, full curve] | – | inconclusive: 35.5 µM [cytotoxic, single point]
OCc1ccc(-c2nn(Cc3ccccc3)c3ccccc23)o1 | active: 5.25 µM | active: 16.6 µM | – | – | inconclusive: 33.2 µM [cytotoxic, single point] | – | inconclusive: 0.833 µM [cytotoxic, full curve, poor fit] | inconclusive: 0.833 µM [cytotoxic, full curve, poor fit] | – | – | – | inconclusive: 12.6 µM [cytotoxic, partial curve, poor fit]
Cc1ccccc1C(C(=O)NC1CCCCC1)N(C(=O)Cn1ccnc1C)c1cccc(F)c1 (configuration not stated) | inconclusive: 5.9 µM [cytotoxic, full curve] | inactive | – | inactive | – | – | – | – | – | inactive | – | –
CCC(C)(C)C(=O)O[C@H]1C[C@@H](C)C=C2C=C[C@H](C)[C@H](CC[C@@H]3C[C@@H](O)CC(=O)O3)[C@H]21 | active: 8.41 µM and active: 9.34 µM | inconclusive: 20.9 µM [cytotoxic, partial curve] | – | – | inconclusive: 16.6 µM [cytotoxic, partial curve] | inconclusive: 3.72 µM [cytotoxic, full curve, poor fit] | inconclusive: 8.33 µM [cytotoxic, full curve] | inconclusive: 2.09 µM [cytotoxic, partial curve, poor fit] | – | – | – | –
Oc1ccc(-c2nc(-c3ccc(F)cc3)c(-c3ccncc3)[nH]2)cc1 | active: 9.34 µM | active: 13.2 µM | – | – | active: 13.2 µM | – | – | – | inconclusive: 17.8 µM [cytotoxic, partial curve] | – | – | –
O=C(NOC[C@H](O)CO)c1ccc(F)c(F)c1Nc1ccc(I)cc1F | inconclusive: 0.259 µM [cytotoxic, full curve] | active: 0.0332 µM | – | – | inconclusive: 26.4 µM [cytotoxic, single point] | – | – | active: 11.8 µM | – | inconclusive: 23.5 µM [cytotoxic, partial curve] | – | –
CC[C@H](C)n1cc(C)c2c(C(=O)NCc3c(C)cc(C)[nH]c3=O)cc(-c3ccc(N4CCNCC4)nc3)cc21 | active: 7.42 µM | inconclusive: 16.6 µM [cytotoxic, partial curve, poor fit] | – | – | – | inactive | inactive | inactive | inconclusive: 35.5 µM [cytotoxic, single point] | – | – | active: 28.2 µM
CCOC(=O)[C@H](CCc1ccccc1)N[C@H]1CS[C@H](c2cccs2)CN(CC(=O)O)C1=O | inconclusive: 26.6 µM [cytotoxic, single point] and active: 7.42 µM | active: 13.2 µM | – | active: 8.33 µM | active: 14.8 µM | – | inconclusive: 3.32 µM [cytotoxic, full curve, poor fit] | – | – | active: 9.35 µM | inactive: 6.33% and inactive: 0.504% | inactive
Cc1cccc(N(C)C(=S)Oc2ccc3ccccc3c2)c1 | inconclusive: 21.1 µM [cytotoxic, single point] and inconclusive: 37.2 µM [cytotoxic, single point] | inactive | – | inactive | inconclusive: 37.2 µM [cytotoxic, partial curve, poor fit] | – | inactive | inactive | inconclusive: 29.1 µM [cytotoxic, single point] | – | – | inconclusive: 6.51 µM [cytotoxic, partial curve, poor fit]
COC(=O)c1ccc2c(C(=Nc3ccc(N(C)C(=O)CN4CCN(C)CC4)cc3)c3ccccc3)c(O)[nH]c2c1 | active: 32.6 nM and active: 37.2 nM | inactive | – | – | inactive | inconclusive: 0.0066 µM [cytotoxic, full curve] | inconclusive: 0.526 µM [cytotoxic, partial curve, poor fit] | inconclusive: 0.0066 µM [cytotoxic, full curve] | active: 7.08 µM | – | – | active: 10 µM
CCN(CC)Cc1ccc2cc(COC(=O)Nc3ccc(C(=O)NO)cc3)ccc2c1 | active: 291 nM and active: 468 nM | active: 3.72 µM | – | – | active: 2.35 µM | active: 1.66 µM | – | – | active: 2.82 µM | – | – | –
